Laboratory results taken from PMC3424236, “Siderocalin/Lcn2/NGAL/24p3 Does Not Drive Apoptosis Through Gentisic Acid Mediated Iron Withdrawal in Hematopoietic Cell Lines” (PLoS ONE, 2012).

How the values were obtained:
[1] = Solution speciation of iron complexes (HYSS, UV/Vis spectroscopy); settings: [Fe3+] = 20 µM, [L] = 60 µM; calculated with HYSS, confirmed by UV/Vis
Transduced FL5.12 = assay: Apoptosis/viability of FL5.12 cells stably transduced with Scn; assay type: cell-based, murine; settings: iron-free compounds added at 100 µM, with IL-3
human Scn = biological target: T1, human Scn (Homo sapiens, UniProt P80188); assay: Fluorescence quenching (FQ) binding assay; settings: for fluorescence quenching / binding to Scn: alone (desferri) or in the presence of iron (ferric), pH 7.2; for Kd: unfittable, compared with the derived 2,3-DHBA KD, presence or absence of iron, read-out: dissociation constants
T1 construct: made in house; host or cells: E. coli

Scn = tested on: T2, Scn; assay: Filter retention (ultrafiltration) binding assay; settings: apo-Scn 10 µM, candidate siderophore 10 µM, pH 7.4, 60 min; Figure S2A
T2 construct: made in house; host or cells: E. coli

Row | Structure (SMILES) | formation of ferric complexes as a function of pH [1] | effect on apoptosis / viability (Transduced FL5.12) | fluorescence quenching / binding to Scn (human Scn) | Kd (human Scn) [nM] | iron retention (Scn)
1 | O=C(O)c1cccc(O)c1O [2,3-DHBA, 2,3-dihydroxybenzoic acid] | formed ferric complexes at physiological pH |  |  |  | 
2 | O=C(N[C@H]1COC(=O)[C@@H](NC(=O)c2cccc(O)c2O)COC(=O)[C@@H](NC(=O)c2cccc(O)c2O)COC1=O)c1cccc(O)c1O [Ent, enterobactin] |  | induced robust apoptosis |  |  | 
3 | O=C(O)c1cc(O)ccc1O [GA, 2,5-dihydroxybenzoic acid] |  |  | weak binding to Scn | > 400 | less than 10%
4 | O=C(NCCN(CCNC(=O)c1cc(O)ccc1O)CCNC(=O)c1cc(O)ccc1O)c1cc(O)ccc1O [TRENGEN] |  |  | weak binding to Scn | > 400 | 
